Data: PubChem BioAssay AID488969 (Vanderbilt High Throughput Screening Facility, 2010)
Over roughly 110,000 compounds, “z-score” has its median near -0.1; the highest 2% begin near 2. The list shows a part of the results. Activity calls are given as the source filed them.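 Rule for the calls: active = z-score in the third read window above 3 or below -3; inactive = the rest.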

Target: Metabotropic glutamate receptor 8 (Rattus norvegicus) (UniProt P70579)
Assay: rat mGluR8 modulators via GIRK flux, primary screen, cell-based, thallium flux, HTS (AID 488969)
Details: HEK293 rat mGluR8, GIRK (G protein-gated inwardly rectifying potassium channel) thallium flux, FluoZin2; at 10 µM; stronger effect = higher value; submaximal glutamate (EC20) added with thallium

UniProt P70579, sequence (P70579 whole entry, looked up): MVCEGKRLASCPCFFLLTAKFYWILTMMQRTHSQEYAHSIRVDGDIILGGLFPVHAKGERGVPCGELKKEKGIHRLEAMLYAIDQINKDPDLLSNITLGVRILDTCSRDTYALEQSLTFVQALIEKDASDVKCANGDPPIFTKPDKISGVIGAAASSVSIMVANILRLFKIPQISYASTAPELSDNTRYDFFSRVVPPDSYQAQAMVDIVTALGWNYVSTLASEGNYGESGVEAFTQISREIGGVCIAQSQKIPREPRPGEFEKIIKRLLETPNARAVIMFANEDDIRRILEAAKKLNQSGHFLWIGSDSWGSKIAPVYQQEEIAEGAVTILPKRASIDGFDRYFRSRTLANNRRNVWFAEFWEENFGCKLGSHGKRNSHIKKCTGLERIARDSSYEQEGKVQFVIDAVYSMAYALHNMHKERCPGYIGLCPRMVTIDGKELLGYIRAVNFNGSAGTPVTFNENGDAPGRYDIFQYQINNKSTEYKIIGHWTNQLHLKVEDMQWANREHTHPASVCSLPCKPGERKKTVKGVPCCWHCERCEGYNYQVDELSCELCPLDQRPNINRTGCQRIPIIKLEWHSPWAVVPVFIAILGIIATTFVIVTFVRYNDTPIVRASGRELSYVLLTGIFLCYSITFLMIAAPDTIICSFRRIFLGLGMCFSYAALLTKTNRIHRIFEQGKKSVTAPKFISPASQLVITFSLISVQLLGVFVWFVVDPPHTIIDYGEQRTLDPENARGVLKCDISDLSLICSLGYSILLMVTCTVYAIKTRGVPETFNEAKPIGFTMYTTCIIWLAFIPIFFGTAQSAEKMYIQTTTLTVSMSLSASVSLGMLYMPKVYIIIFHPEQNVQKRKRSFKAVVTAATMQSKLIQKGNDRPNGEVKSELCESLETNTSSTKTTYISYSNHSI

| SMILES | z-score |
| --- | --- |
| Cc1sc2nc(-c3ccco3)oc(=O)c2c1C | 0.104 |
| CCc1ccc(NC(=S)NNC(=O)c2ccccc2OC(F)F)cc1 | active: 3.63 |
| COC(=O)c1ccccc1NC(=O)C12CC3CC(C1)CC(n1cnc(Cl)n1)(C3)C2 | -0.579 |
| CC(C)c1nnc(NC(=O)c2ccc(N3C(=O)CCC3=O)cc2)s1 | -0.263 |
| O=C1CCC([N+](=O)[O-])C(c2cccc(Cl)c2Cl)N1 (stereo not given) | -0.113 |
| O=C(COn1nnc2ccc(C(F)(F)F)cc21)Nc1nnc(-c2ccccc2)o1 | 0.188 |
| COc1ccc(-c2nnc(SCc3nnc(-c4ccc(Cl)cc4)o3)n2-c2ccccc2)cc1 | -1.79 |
| Cc1ccc(/C=N/n2c(C3CCCCC3)n[nH]c2=S)o1 | 0.327 |
| COc1ccc(C2CC(=O)C3=C(C2)Nc2ncnn2C3c2ccccc2)cc1 (stereo not given) | 0.0353 |
| O=C(CSc1ccc(-c2ccccc2)nn1)N1CCCc2ccccc21 | -0.317 |
| Cc1ccc(/C=N/NC(=O)c2nn(C)cc2Cl)cc1 | -1.63 |
| COC(=O)c1ccc(/C=N/OCC(=O)NC2CCCC(C)C2C)cc1 (stereo not given) | -0.102 |
| CS(=O)(=O)N(CC(=O)N1CCN(c2ccc(F)cc2)CC1)c1cccc(Cl)c1 | -0.0748 |
| CCN(CC)CCn1c(OC)cc(=O)[nH]c1=O | 0.169 |
| CNc1nc(C)cc(C)c1S(=O)(=O)c1ccc(Cl)cc1 | -0.176 |
| Clc1cccc2sc(-c3nnc(-c4ccccc4)o3)c(Cl)c12 | -0.173 |
| Cc1noc(C)c1S(=O)(=O)Nc1ccc(C(=O)N2CCN(c3cccc(Cl)c3)CC2)cc1 | -0.105 |
| O=c1c([N+](=O)[O-])c(N2CCCCC2)c2ccccc2n1-c1ccccc1 | -0.0405 |
| CCOC(=O)c1cc(CC)sc1NC(=O)CSc1nc2ccccc2c(=O)n1Cc1ccco1 | 0.657 |
| CC(C)COP(=O)(c1ccc(N(C)C)cc1)C(O)c1ccccn1 (stereo not given) | 0.147 |
| CCNc1nc(N2CCCCC2)nc(-n2nnc(C(=O)OCC)c2C)n1 | -1.93 |
| c1ccc(Cc2ccc(OCCn3cncn3)cc2)cc1 | 0.501 |

| SMILES | z-score |
| --- | --- |
| CC(=O)Nc1cc(NC(C)=O)c2nc(N)sc2c1 | 0.158 |
| C=CCn1c(N)cc(=O)nc1SCC(=O)N1CCN(c2ccc(F)cc2)CC1 | 1.01 |
| Cc1csc(NC(=O)C2CCCN(S(=O)(=O)c3ccc4c(c3)oc(=O)n4C)C2)n1 (stereo not given) | -0.00309 |
| O=C(OCCN1C(=O)c2cccc3c(N4CCOCC4)ccc(c23)C1=O)c1cc(Cl)cc(Cl)c1 | active: 5.23 |
| CCOc1ccc(Br)cc1S(=O)(=O)N1CC(C)OC(C)C1 (stereo not given) | -0.977 |
| CCOC(=O)N1CCN(C(=O)c2n[nH]c(=O)c3ccccc23)CC1 | 0.307 |
| CCOC(=O)/C=c1\s/c(=C\c2ccc3cc(OC)ccc3c2)c(=O)n1CC(=O)NCC1CCCO1 (stereo not given) | 0.466 |
| Cc1ccc(S(=O)(=O)N(CCC#N)CCN2CCCC2)cc1 | -0.604 |
| COCC(=O)Nc1sc2c(c1C(=O)OC)CCCC2 | 1.59 |
| Cc1ccc(OCC(=O)OCC(=O)Nc2sccc2C(N)=O)cc1C | -0.496 |
| COc1ccc(N(C(=O)Cc2cccs2)C(C(=O)NC2CCCCC2)c2cccn2C)cc1 (stereo not given) | -0.0427 |
| CCOC(=O)CN(C(=O)CSc1nnc(Cc2ccccc2)n1-c1ccc(C)cc1)c1ccccc1 | -1.8 |
| COC(=O)c1sc2ncccc2c1OCc1ccccc1Cl | -0.392 |
| N#Cc1ccc(/C=N/NC(=O)c2ccccc2F)cc1 | -0.257 |
| COCCCNC(=O)CS(=O)(=O)Cc1nc(-c2cccc(OC)c2)oc1C | 0.565 |
| O=C(NC1(O)C(=O)c2ccccc2C1=O)c1ccccc1 | 0.757 |
| C/C(=C\c1ccccc1)C(=O)Nc1cc(C)on1 | 0.0238 |
| CCc1ccc(NC(=O)CCc2nc3cccnc3n2Cc2ccc(OC)cc2)cc1 | -0.122 |
| Cn1c(=O)c2ncn(CC(=O)Nc3cccc(-c4nc5ccccc5s4)c3)c2n(C)c1=O | -0.289 |
| CCN1CCN(S(=O)(=O)c2ccc(S(=O)(=O)NCC3CCCO3)cc2)CC1 (stereo not given) | -0.183 |
| Cc1oc(C)c(C(=O)NCCCC(=O)O)c1C(=O)NCCCC(=O)O | 0.0315 |
| CCC(C(=O)O)N1C(=O)c2ccccc2C1=O (stereo not given) | -0.172 |

| SMILES | z-score |
| --- | --- |
| COc1ccc(S(=O)(=O)Nc2cccc(N(C)S(C)(=O)=O)c2)cc1C | -0.158 |
| CCOC(=O)C1CCCN(C(=O)Nc2cccc(Cl)c2)C1 (stereo not given) | -0.426 |
| CCOC(=O)c1c(NC(=O)CSc2nnc(CN3CCOCC3)n2C)sc2c1CCCC2 | -1.78 |
| CN(Cc1nc(-c2ccncc2)no1)S(=O)(=O)c1ccc(Cl)cc1 | 0.129 |
| O=C1N(Nc2ccccc2)C(c2ccc(Br)cc2)C12CCCC2 (stereo not given) | -0.256 |
| NS(=O)(=O)c1ccc(NC(=S)NCc2ccccc2)cc1 | 0.272 |
| CCOc1ccc(-c2cn(-c3cccc(SC)c3)c(=O)[nH]2)cc1 | -0.18 |
| O=C1c2ccccc2C(Nc2ccc(-c3nc4ccccc4[nH]3)cc2)N1Cc1ccco1 (stereo not given) | -0.59 |
| Cc1cc2[nH]c3ccccc3c2c(C)n1 | 0.416 |
| CCOC(=O)c1c(NC(=O)CSc2nc3cc(Cl)ccc3c(=O)n2Cc2ccco2)sc(C(=O)N(C)C)c1C | 0.223 |
| Cc1nc(C2CC(=O)OC23CCCCC3)cs1 (stereo not given) | -1.25 |
| CC1=Nc2ccccc2/C1=C\c1nc(-c2ccc(C(F)(F)F)cc2)oc1O | 0.101 |
| COc1ccc(O)c(/C=N/NC(=O)CSc2nnc(C)n2-c2ccccc2)c1 | -0.251 |
| O=C(c1ccc(S(=O)(=O)Nc2ccc(F)cc2)cc1)N1CCN(C(=O)c2ccco2)CC1 | -0.719 |
| Cc1nn(-c2cc(N3CCCCCC3)ccc2[N+](=O)[O-])c(=O)c2ccccc12 | -1.08 |
| COc1ccc(CN(CCCN2CCOCC2)C(=O)Nc2ccccc2)cc1OC | 0.0727 |
| Cc1occc1C(=O)Nc1ccc2ccccc2c1 | 2.19 |
| Cc1ccccc1-c1nnc(SCC(=O)Nc2c(C)n(C)n(-c3ccccc3)c2=O)o1 | -0.0211 |
| CCc1ccc(Nc2cc(C(=O)NCCCN3CCOCC3)c3ccccc3n2)cc1 | -0.0137 |
| Cn1cnc([N+](=O)[O-])c1Nc1ccccc1O | -0.0821 |
| CCOc1ccccc1C(=O)NC(C(=O)Nc1ccccc1N1CCOCC1)C(C)C (stereo not given) | -0.693 |
| COc1cc(/C=N/N2CCN(c3ccccc3OC)CC2)ccc1O | -0.23 |

| SMILES | z-score |
| --- | --- |
| CC(CCc1ccccc1)NC(=O)C1CCCN(c2nnc(-n3cccc3)s2)C1 (stereo not given) | -0.535 |
| CCCCC1(Cc2ccc([N+](=O)[O-])cc2)C(=O)N(c2ccccc2)N(c2ccccc2)C1=O | -0.29 |
| CCOc1ccc(OCC)c(NC(=O)C2CCCN(S(=O)(=O)c3cnc[nH]3)C2)c1 (stereo not given) | 1.47 |
| CC(C)NC(=O)C1CCN(C(=O)c2ccc(-c3ccccc3)cc2)CC1 | -0.137 |
| Cc1c(Cl)cccc1NC(=O)c1cc(-c2ccccc2O)n[nH]1 | -0.0616 |
| CCCC(C)C(=O)Nc1ccc(Cl)cn1 (stereo not given) | -0.0543 |
| CC(=O)C1=C(C)NC(=O)NC1c1cccc(O)c1 (stereo not given) | -0.149 |
| Cc1c(Cl)cccc1N1C(=O)CC(NNC(=O)c2cccnc2)C1=O (stereo not given) | -0.0482 |
| Cc1nn(-c2cccc(Cl)c2)c(Cl)c1/C=N/NC(=O)c1cccs1 | -0.201 |
| COc1cccc(N2CCN(CC(=O)Nc3nnc(-c4ccccc4)s3)CC2)c1 | 0.998 |
| Cc1ccccc1C(=O)c1cccn1CC(=O)N1CCCCCC1 | -0.197 |
| CC(C)CNC(=O)c1cccc(NC(=O)C2CCCO2)c1 (stereo not given) | -0.0529 |
| CCN=C1NN=C(c2ccc(C)cc2)CS1 | 1.58 |
| COc1ccc(-c2nc(SCC(=O)NCc3ccco3)c(-c3ccccc3)[nH]2)cc1OC | -0.712 |
| Cc1ccc(Oc2nc3ccccc3n3c(C)nnc23)c(C)c1 | -0.144 |
| CC(C)(C)Nc1nc(SCc2ccccc2)nc(N2CCOCC2)n1 | 0.316 |
| CC(C)(C)c1cnnn1-c1ccc(C=O)cc1 | 0.185 |
| CCOc1cccc(/C=N/NC(=S)Nc2cc(S(=O)(=O)N3CCOCC3)ccc2N2CCOCC2)c1O | -0.444 |
| Cc1ccc(-c2nc(NC(=O)CSc3nnnn3-c3ccccc3)ns2)cc1 | -0.286 |
| COc1cccc(/C=C/C(=O)OCC(=O)c2cc(C)n(CC3CCCO3)c2C)c1OC (stereo not given) | -0.205 |
| CCOc1ccc(C2C(C#N)=C(N)Oc3cc(C)n(CCN(C)C)c(=O)c32)cc1OCC (stereo not given) | -0.133 |
| CC1=C(C(=O)OCc2ccccc2)C(c2cccnc2)n2nnnc2N1 (stereo not given) | 0.152 |

| SMILES | z-score |
| --- | --- |
| COc1cccc(OCc2cc(C3Nc4ccccc4C(=O)N3Cc3ccco3)ccc2OC)c1 (stereo not given) | -0.29 |
| COc1ccc(C(=O)O)cc1F | 0.715 |
| CSc1nnnn1CCn1nnnc1SC | 0.0871 |
| CC(=O)c1cccc(NC(=O)c2cc(C(C)C)on2)c1 | -0.333 |
| CC(Oc1ccc(Cl)cc1)C(=O)N/N=C/c1ccsc1 (stereo not given) | active: 11.6 |
| N#Cc1c(C(F)(F)F)cc(-c2ccc(Cl)cc2)[nH]c1=O | -2.06 |
| CCOC(=O)NC1(C(F)(F)F)C(=O)NC(C)=C1C#N (stereo not given) | 0.245 |
| COc1ccc(C(=O)Nc2ccc(N3CCCC3)cc2)cc1 | -0.708 |
| Clc1ccccc1CSc1nnc(/C=C/c2ccccc2)o1 | -0.356 |
| CCCCNC(=S)N(C)/N=C/c1ccc2c(c1)OCO2 | -0.124 |
| CCCS(=O)(=O)N1CCCC(C(=O)NCCCOC(C)C)C1 (stereo not given) | -0.0692 |
| O=C(CSCc1ccccc1Br)N/N=C/c1ccc2c(c1)OCO2 | -0.0558 |
| CC(C)Sc1nc2c(c(=O)n(C)c(=O)n2C)n1C | -0.0211 |
| O=C(OCc1cc(=O)n2c(n1)sc1ccccc12)c1ccc(O)cc1 | -0.289 |
| Cc1[nH]nc2c1C1(CCN(C(=O)c3ccccc3)CC1)C(C#N)=C(N)O2 | -0.486 |
| Cc1cccc(OCCCn2c(=O)sc3ccccc32)c1 | 0.581 |
| CCOc1ccc2nc(NCCCO)[nH]c2c1 | 0.103 |
| Cn1c(N)c(C#N)c(C#N)c1-c1ccccc1 | -0.345 |
| O=C(OCc1cn(-c2ccc(Cl)c(Cl)c2)nn1)c1ccccc1 | 0.116 |
| O=C(CCSc1nnc(-c2ccncc2)o1)Nc1ccccc1Cl | 1.06 |
| Cc1ccc(-c2nc3ccccc3s2)cc1S(=O)(=O)N1CCOCC1 | 0.939 |
| CCOC(=O)CNc1c(-c2ccc(O)cc2)nc2ccccn12 | -0.16 |
